The whole screen tested about 390,000 compounds, of which about 910 (0.23%) were called active. Roughly 5% stayed inconclusive and do not appear here. The call rests on the fitted dose curve; in most records, active means well fitted inhibition curve with a large enough effect; inconclusive means small, poorly fitted or top-dose-only effect; inactive means no such curve, though single readings can be large or run the other way. The list shows a part of the results, in another mix than the full data.
These compounds were tested against Ubiquitin carboxyl-terminal hydrolase 1 (Homo sapiens) (UniProt O94782) (assay: Inhibitors of USP1/UAF1: Primary Screen). Conditions: recombinant USP1/UAF1, Ub-Rhodamine cleavage fluorescence; activity change, negative = inhibition: at 57.1 µM (top of the series).
Procedure, shortened: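 1 nM enzyme complex + cpd, 15 min RT; start with Ub-Rho 150nM final; kinetic fluorescence ex 480/em 540, 6 reads q60 s. Buffer 50mM HEPES pH 7.8, 0.5mM EDTA, 0.1 mg/ml BSA, 1mM TCEP, 0.01% Tween-20.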
Further: nearly all actives have a fitted effect of over 60% in size.
On the % scale 0 is the no-effect control and ±100 the full control effect; potency means the concentration at half of the fitted maximal effect.

UniProt O94782, sequence (O94782 whole entry, looked up): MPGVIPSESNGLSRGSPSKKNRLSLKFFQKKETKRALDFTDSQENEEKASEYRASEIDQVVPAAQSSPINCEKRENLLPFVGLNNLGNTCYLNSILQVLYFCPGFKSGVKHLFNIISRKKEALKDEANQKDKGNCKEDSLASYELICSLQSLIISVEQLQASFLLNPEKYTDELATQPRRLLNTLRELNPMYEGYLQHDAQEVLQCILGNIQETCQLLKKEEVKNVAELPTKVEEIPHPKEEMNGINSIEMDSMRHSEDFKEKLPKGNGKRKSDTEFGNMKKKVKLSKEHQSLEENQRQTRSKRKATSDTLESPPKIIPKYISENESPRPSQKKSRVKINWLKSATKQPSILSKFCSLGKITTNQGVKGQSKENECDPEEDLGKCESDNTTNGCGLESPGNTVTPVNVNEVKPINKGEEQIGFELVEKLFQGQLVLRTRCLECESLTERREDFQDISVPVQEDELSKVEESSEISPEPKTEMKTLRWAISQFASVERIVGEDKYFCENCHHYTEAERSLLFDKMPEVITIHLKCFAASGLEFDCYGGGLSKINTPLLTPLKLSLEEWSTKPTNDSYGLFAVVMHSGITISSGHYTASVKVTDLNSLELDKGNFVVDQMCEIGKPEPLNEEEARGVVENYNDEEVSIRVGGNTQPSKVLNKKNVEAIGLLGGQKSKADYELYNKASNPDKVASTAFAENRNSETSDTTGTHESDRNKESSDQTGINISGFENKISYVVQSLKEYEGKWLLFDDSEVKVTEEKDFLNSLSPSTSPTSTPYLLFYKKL

Question: With O=C(CSc1nccn1Cc1ccc(F)cc1)NC1CCCC1 as the compound, how does the “activity change, negative = inhibition” value read?
Answer: inactive: -20.8%

Question: With CCN1C(=O)[C@@H]2[C@@H](c3ccc(-c4ccc(C(C)=O)cc4)cc3)N3CCC[C@@]3(C(=O)OC)[C@@H]2C1=O as the compound, how does the “activity change, negative = inhibition” value read?
Answer: inactive: -16.4%

Question: How did the “activity change, negative = inhibition” value turn out when CCN1C(=O)/C(=C\c2cn(-c3ccccc3)nc2-c2cccnc2)SC1=S was run?
Answer: inactive: -15.7%

Question: Which “activity change, negative = inhibition” value does the source give for C(C#CCCCCCCCCC[n+]1ccccc1)#CCCCCCCCCC[n+]1ccccc1 here?
Answer: inactive: 1.74%

Question: CCC(Sc1nc2ccncc2[nH]1)C(=O)Nc1cc(Cl)ccc1C (stereo unspecified) was tested. Which “activity change, negative = inhibition” value did it give?
Answer: inactive: -13.3%

Question: For Cc1ccc([C@H]2C[C@@H](n3cc(-c4ccc(F)cc4)nn3)[C@H](O)CN2C(=O)c2cccs2)cc1, which “activity change, negative = inhibition” value is on record?
Answer: inactive: -26.6%

Question: Which “activity change, negative = inhibition” value does the source give for OCC[C@@H]1C[C@@H](O)[C@H](O)[C@@]2(CCCc3ccccc3O2)O1 here?
Answer: inactive: -16.9%

Question: Which “activity change, negative = inhibition” value does the source give for COC(=O)CNC(=O)C1CCN(S(=O)(=O)c2cccc3nsnc23)CC1 here?
Answer: inactive: -16.3%

Question: CCc1ccc(NC(=O)C2CCCN2S(=O)(=O)c2ccc3c(c2)n(C)c(=O)c(=O)n3C)cc1 (stereo unspecified) was tested. Which Potency did it give?
Answer: inactive

Question: How did the Potency turn out when CCOC(=O)N1CCN(c2cc(NCCC(=O)O)c3c4c(onc24)-c2ccccc2C3=O)CC1 was run?
Answer: active: 14.1 µM

Question: With COc1ccc(NC(=O)Cn2nnc(C(=O)NCc3ccc4c(c3)OCO4)c2N)cc1 as the compound, how does the “activity change, negative = inhibition” value read?
Answer: inactive: -9.49%

Question: CN1CCc2c(sc(NC(=O)CSc3ccc(F)cc3)c2-c2nc3ccccc3s2)C1 was tested. Which “activity change, negative = inhibition” value did it give?
Answer: inactive: 91.9%

Question: How did the “activity change, negative = inhibition” value turn out when OCC[C@@H]1C[C@@H](O)[C@H](O)[C@]2(CCCc3ccccc3O2)O1 was run?
Answer: inactive: 21.3%

Question: CCOC(=O)c1ccc(NCn2c(=O)oc3ccccc32)cc1 was tested. Which Potency did it give?
Answer: active: 25.1 µM

Question: How did the “activity change, negative = inhibition” value turn out when CCOC(=O)C(C(=O)OCC)c1cc(Br)c2noc3c2c1C(=O)c1ccccc1-3 was run?
Answer: inactive: 43.8%

Question: How did the “activity change, negative = inhibition” value turn out when Cc1ccc(C2c3c(-c4ccccc4O)n[nH]c3C(=O)N2CCc2ccccc2)cc1 (stereo unspecified) was run?
Answer: inactive: 31%

Question: How did the “activity change, negative = inhibition” value turn out when CN1CCN(C(=O)C2=C[C@H](c3ccc4c(c3)OCO4)C[C@H](OCc3ccc(CO)cc3)O2)CC1 was run?
Answer: inactive: -10.8%

Question: Which “activity change, negative = inhibition” value does the source give for O=C(NCc1nc2ccccc2[nH]1)C1=C[C@H](C2CCCCC2)C[C@H](OCCCCO)O1 here?
Answer: inactive: -30.8%

Question: Which “activity change, negative = inhibition” value does the source give for CCOc1ccc(NC(=O)CSc2nccn2Cc2ccco2)cc1 here?
Answer: inactive: -23%

Question: With Cc1cc(C)cc(OCC(=O)NCCc2nc3ccccc3[nH]2)c1 as the compound, how does the “activity change, negative = inhibition” value read?
Answer: inactive: 0.709%

Question: With CCO[C@@H]1OC(C(=O)O)=C[C@H](c2ccc3c(c2)OCO3)[C@H]1CCCO as the compound, how does the “activity change, negative = inhibition” value read?
Answer: inactive: -28.2%

Question: C[C@@H](NC(=O)c1[nH]cnc1C(=O)Nc1cccc(Cl)c1)c1ccccc1 was tested. Which “activity change, negative = inhibition” value did it give?
Answer: inactive: -28.8%

Question: With CCOC(=O)[C@@H]1[C@H]2COc3ccc(Br)cc3[C@H]2N2C(=O)N(c3ccc(C)cc3)C(=O)[C@]12C as the compound, how does the “activity change, negative = inhibition” value read?
Answer: inactive: -12.1%

Question: Which “activity change, negative = inhibition” value does the source give for C[C@@H]1CCC[C@@]2(O[C@H](CCO)C[C@H](O)[C@H]2O)O1 here?
Answer: inactive: -16%

Question: O=C1Nc2ccccc2C1=Nc1ccc(-c2nnc3n2CCCCC3)cc1 was tested. Which “activity change, negative = inhibition” value did it give?
Answer: inactive: -8.27%

Question: For Cc1ccc(N2C(=O)[C@@H]3[C@H](C2=O)C2c4ccccc4C=CN2[C@@H]3C(=O)c2ccco2)cc1 (stereo partly specified), which Potency is on record?
Answer: active: 15.8 µM

Question: With C[C@@H]1CN([C@@H](C)CO)C(=O)c2cc(Br)cnc2O[C@H]1CN(C)C(=O)Nc1ccc2c(c1)OCO2 as the compound, how does the “activity change, negative = inhibition” value read?
Answer: inactive: -16.9%

Question: With COc1cc(NC(=O)c2ccccc2)ccc1NC(=O)c1cc2ccccc2o1 as the compound, how does the “activity change, negative = inhibition” value read?
Answer: inactive: -18.6%

Question: C[C@@H]1CN([C@H](C)CO)C(=O)CCCn2nncc2CO[C@@H]1CN(C)C(=O)Nc1cccc2ccccc12 was tested. Which “activity change, negative = inhibition” value did it give?
Answer: inactive: -3.02%

Question: How did the “activity change, negative = inhibition” value turn out when CCc1ccc(-c2nc3ccc(Br)cc3c(C(=O)O)c2C)s1 was run?
Answer: inactive: -13%

Question: For Cc1nn(CCCC(=O)NCc2ccccc2)c(=O)c2nn(-c3ccccc3)c(C)c12, which “activity change, negative = inhibition” value is on record?
Answer: inactive: -6.43%

Question: Which “activity change, negative = inhibition” value does the source give for CCCN1C(=O)/C(=C/c2ccc(N3CCCC3)c(C)c2)NC1=S here?
Answer: inactive: 39.8%

Question: How did the “activity change, negative = inhibition” value turn out when CCOc1cc(/C=C(\C#N)c2nc(-c3cccs3)c(NC(C)=O)s2)ccc1O was run?
Answer: inactive: 48.4%

Question: Which Potency does the source give for Cc1ccc(S(=O)(=O)/N=C2\C=C(Nc3cccc(C(=O)O)c3)C(=O)c3ccccc32)c(C)c1 here?
Answer: active: 10 µM

Question: C[C@H]1CCC[C@]2(O[C@@H](CCO)C[C@H](O)[C@H]2O)O1 was tested. Which “activity change, negative = inhibition” value did it give?
Answer: inactive: -17.4%

Question: N#C/C(=C/c1ccc(N2CCOCC2)o1)c1ccc(Br)cc1 was tested. Which “activity change, negative = inhibition” value did it give?
Answer: inactive: 107%

Question: Which “activity change, negative = inhibition” value does the source give for O=C(N[C@H]1C/C=C\C[C@@H](CC(=O)N(CCO)Cc2ccccc2)C(=O)N2CCC[C@H]2COC1=O)OCC1c2ccccc2-c2ccccc21 here?
Answer: inactive: -16.1%

Question: C[C@@]12CCC[C@H](O1)[C@@H]([C@H](O)c1ccccc1)O2 was tested. Which “activity change, negative = inhibition” value did it give?
Answer: inactive: -11.7%

Question: CC(=O)c1ccc(N2CCN(C(=O)Nc3cccc(F)c3)CC2)cc1 was tested. Which “activity change, negative = inhibition” value did it give?
Answer: inactive: 3.08%

Question: Which Potency does the source give for C#CCOCCOCCOCCNc1nc(N2CCOCC2)nc(N2CCN(C(=O)[C@H](Cc3cc4ccccc4[nH]3)n3cc([C@@H](N)C(C)CC)nn3)CC2)n1 (stereo partly specified) here?
Answer: active: 44.7 µM

Question: How did the “activity change, negative = inhibition” value turn out when CNC[C@H](O)c1ccc(O)c(O)c1 was run?
Answer: inactive: -25.6%

Question: How did the Potency turn out when COc1cc(C=c2c3ccccc3n3c2cc(-c2ccccc2)[n+]3C)cc(OC)c1OC was run?
Answer: active: 2.24 µM

Question: OCC[C@H]1C[C@@H](O)[C@H](O)[C@]2(OCc3ccccc32)O1 was tested. Which “activity change, negative = inhibition” value did it give?
Answer: inactive: -19.5%

Question: COC(=O)[C@@]12CCCCN1[C@H](c1ccc(-c3cccc(Cl)c3)cc1)[C@H]1C(=O)N(C)C(=O)[C@H]12 was tested. Which “activity change, negative = inhibition” value did it give?
Answer: inactive: -14.9%

Question: How did the “activity change, negative = inhibition” value turn out when COc1cc(NC(=O)c2cc(S(=O)(=O)N3CCc4ccccc43)cn2C)cc(OC)c1OC was run?
Answer: inactive: -14.2%

Question: Which “activity change, negative = inhibition” value does the source give for CC(=O)Nc1sc(/C(C#N)=C/c2ccc(Cl)c(Cl)c2)nc1-c1ccc(C)cc1 here?
Answer: inactive: 17.4%

Question: With O=S(=O)(Nc1cccc(-c2ccc(N3CCCCCC3)nn2)c1)c1cccc(F)c1 as the compound, how does the “activity change, negative = inhibition” value read?
Answer: inactive: -17.9%

Question: How did the Potency turn out when CCOC(=O)/C(=C/c1ccc(N2CCC(c3ccccc3)=N2)cc1)C(C)=O was run?
Answer: active: 4.47 µM

Question: COc1ccc(CN2CCN(Cc3cc(=O)oc4cc(C)ccc34)CC2)c(OC)c1OC was tested. Which “activity change, negative = inhibition” value did it give?
Answer: inactive: -20.8%

Question: For CN(C)CCNC(=O)Cn1nc(C(F)F)cc1C1CC1, which “activity change, negative = inhibition” value is on record?
Answer: inactive: 27.8%

Question: With O=C(CSc1nnc2sc3ccccc3n12)c1ccco1 as the compound, how does the “activity change, negative = inhibition” value read?
Answer: inactive: 35.8%

Question: Which “activity change, negative = inhibition” value does the source give for O=S(=O)(N[C@H]1C[C@@H](NS(=O)(=O)OCC(Cl)(Cl)Cl)C2CCCCC21)OCC(Cl)(Cl)Cl (stereo partly specified) here?
Answer: inactive: -7.62%

Question: CCOc1cc(CNc2ccc(O)cc2)ccc1OCc1ccc(Cl)cc1Cl was tested. Which Potency did it give?
Answer: active: 8.91 µM

Question: How did the “activity change, negative = inhibition” value turn out when CC(C)(C)OC(=O)C[C@@H]1C/C=C\C[C@@H](CC(=O)N[C@@H](CO)Cc2ccccc2)C(=O)NCCOC1=O was run?
Answer: inactive: -16%

Question: For CCCCn1c(NS(=O)(=O)c2ccccc2)c(S(=O)(=O)c2ccc(C)cc2)c2nc3ccccc3nc21, which Potency is on record?
Answer: active: 28.2 µM

Question: COc1cccc(S(=O)(=O)N(C)C[C@@H]2OCc3cnnn3CCCC(=O)N([C@@H](C)CO)C[C@H]2C)c1 was tested. Which “activity change, negative = inhibition” value did it give?
Answer: inactive: -19.6%
